16 proteins from the supplement of paper PMC11876631 can be followed below.

To fix the notation:
B1: dapB F224W (protein)
chain: MHDANIRVAIAGAGGRMGRQLIQAALALEGVQLGAALEREGSSLLGSDAGELAGAGKTGVTVQSSLDAVKDDFDVFIDFTRPEGTLNHLAFCRQHGKGMVIGTTGFDEAGKQAIRDAAADIAIVFAANFSVGVNVMLKLLEKAAKVMGDYTDIEIIEAHHRHKVDAPSGTALAMGEAIAHALDKDLKDCAVYSREGHTGERVPGTIGFATVRAGDIVGEHTAMWADIGERLEITHKASSRMTFANGAVRSALWLSGKESGLFDMRDVLDLNNL
B2: dapB V248A (protein)
chain: B1 chain with W224F, V248A
B3: dapB V248Q (protein)
chain: B1 chain with W224F, V248Q
B4: dapB I153Q (protein)
chain: B1 chain with I153Q, W224F
B5: dapB I153W (protein)
chain: B1 chain with I153W, W224F
B6: dapB I153A (protein)
chain: B1 chain with I153A, W224F
B7: dapB I153P (protein)
chain: B1 chain with I153P, W224F
B8: dapE M107A (protein)
chain: MSCPVIELTQQLIRRPSLSPDDAGCQALLIERLQAIGFTVERMDFADTQNFWAWRGQGETLAFAGHTDVVPPGDADRWINPPFEPTIRDGMLFGRGAADMKGSLAAAVVAAERFVAQHPNHTGRLAFLITSDEEASAHNGTVKVVEALMARNERLDYCLVGEPSSIEVVGDVVKNGRRGSLTCNLTIHGVQGHVAYPHLADNPVHRAAPFLNELVAIEWDQGNEFFPATSMQIANIQAGTGSNNVIPGELFVQFNFRFSTELTDEMIKAQVLALLEKHQLRYTVDWWLSGQPFLTARGKLVDAVVNAVEHYNEIKPQLLTTGGTSDGRFIARMGAQVVELGPVNATIHKINECVNAADLQLLARMYQRIMEQLVA
B9: dapE M107W (protein)
chain: B8 chain with A107W
B10: dapD I184Q (protein)
chain: MQQLQNIIETAFERRAEITPANADTVTREAVNQVIALLDSGALRVAEKIDGQWVTHQWLKKAVLLSFRINDNQVIEGAESRYFDKVPMKFADYDEARFQKEGFRVVPPAAVRQGAFIARNTVLMPSYVNIGAYVDEGTMVDTWATVGSCAQIGKNVHLSGGVGIGGVLEPLQANPTIIEDNCFQGARSEVVEGVIVEEGSVISMGVYIGQSTRIYDRETGEIHYGRVPAGSVVVSGNLPSKDGKYSLYCAVIVKKVDAKTRGKVGINELLRTID
B11: dapD V233A (protein)
chain: B10 chain with Q184I, V233A
B12: dapD V111A (protein)
chain: B10 chain with V111A, Q184I
B13: dapD V45Q (protein)
chain: B10 chain with V45Q, Q184I
B14: dapD V111Q (protein)
chain: B10 chain with V111Q, Q184I
B15: dapD V45A (protein)
chain: B10 chain with V45A, Q184I
B16: dapD V45P (protein)
chain: B10 chain with V45P, Q184I

Changes are numbered by the printed parent chain. In names and notes the source's numbering stands. ± gives the standard deviation of the averaged measurements. Laboratory Escherichia coli strains with one amino-acid change in an essential protein, pooled on minimal glucose agar with carbenicillin or gentamicin at twice the control MIC (plus kanamycin and chloramphenicol for the plasmids), 48 h. Fold change of barcode share against drug-free plates; higher = less susceptible. Active = above 20 in both replicates (the paper's putatively resistant). '<' = one read or none on drug, '>' = one read or none on a drug-free plate. Shares are relative, so most strains fall below 1 when a few take over. Listed are strains with at least 15 reads on both drug-free plates, and hits; most hits rest on fewer reference reads. Replicate rank correlation about 0.5. Edits are read from barcodes.

The first data set addresses Escherichia coli (laboratory strain). In words: barcode share on antibiotic plates over drug-free plates; higher = less susceptible. To be noted: antibiotic: carbenicillin; 2× MIC (3.1 µg/mL). On the procedure:
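A pool of E. coli strains, each edited to carry one amino-acid change in an essential protein, was grown for 48 h on minimal glucose agar with or without antibiotic; strain barcodes were sequenced; mean of two replicates.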
As for B1, the “fold change of barcode share” value worked out at 0.351 ± 0.1. Same read-out and setting: the figure for B2 is 0.315 ± 0.11; for B3 it is 0.325 ± 0.042; for B4 it is 0.305 ± 0.13. Same read-out and setting: to B5 belongs 0.269 ± 0.087. Regarding B6, the “fold change of barcode share” value was determined as 0.398 ± 0.064.

For B7, the “fold change of barcode share” value was determined as 0.617 ± 0.47.

Regarding B8, the “fold change of barcode share” value stood at 3.52 ± 1.1. Still for that read-out and setting: the figure for B9 is 0.372 ± 0.086; for B10 it is 0.253 ± 0.02.

For B11, the “fold change of barcode share” value is 0.508 ± 0.095. On the same count and under the same terms, the figure for B12 is 0.486 ± 0.086; for B13 it is 10.1 ± 3.8.

B14: the “fold change of barcode share” value was 8.72 ± 2.8. Still for that read-out and setting: to B15 belongs 0.367 ± 0.054; to B16, 1.75 ± 0.29.

Staying with this data set, now noted: antibiotic: gentamicin; 2× MIC (MIC 0.45 µg/mL).
Take B1: the “fold change of barcode share” value stood at 0.0315 ± 0.014. On the same count and under the same terms, to B2 belongs < 0.00351.

For the protein B3, the “fold change of barcode share” value worked out at 0.00994 ± 0.011.

In the case of B4, the “fold change of barcode share” value worked out at 0.0113 ± 0.0022. For the protein B5, the “fold change of barcode share” value was < 0.00494. As for B6, the “fold change of barcode share” value is < 0.00523. Still for that read-out and setting: to B7 belongs 0.00548 ± 0.0022.

With B8, the “fold change of barcode share” value amounted to 0.0104 ± 0.0056.

For B9, the “fold change of barcode share” value came to 0.00487 ± 0.0039. Same read-out and setting: the figure for B10 is < 0.016.

B12: the “fold change of barcode share” value is 0.00494 ± 0.0022. The same measure, in the same setting: the figure for B15 is 0.0228 ± 0.028; for B16 it is 0.0257 ± 0.023.
